Out of some 310,000 compounds screened, about 14,000 (4.5%) showed an effect of 50% or more. The effect is printed as a negative number. Some of the results follow.
Target: human ether-à-go-go-related gene (hERG) potassium channel (human, UniProt Q12809)
Assay: primary screen, population patch clamp on CHO cells stably expressing hERG
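Further: peak tail current of the secondary pulse compared with the same well before compound.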

human ether-à-go-go-related gene (hERG) potassium channel, sequence (Q12809 whole entry, looked up): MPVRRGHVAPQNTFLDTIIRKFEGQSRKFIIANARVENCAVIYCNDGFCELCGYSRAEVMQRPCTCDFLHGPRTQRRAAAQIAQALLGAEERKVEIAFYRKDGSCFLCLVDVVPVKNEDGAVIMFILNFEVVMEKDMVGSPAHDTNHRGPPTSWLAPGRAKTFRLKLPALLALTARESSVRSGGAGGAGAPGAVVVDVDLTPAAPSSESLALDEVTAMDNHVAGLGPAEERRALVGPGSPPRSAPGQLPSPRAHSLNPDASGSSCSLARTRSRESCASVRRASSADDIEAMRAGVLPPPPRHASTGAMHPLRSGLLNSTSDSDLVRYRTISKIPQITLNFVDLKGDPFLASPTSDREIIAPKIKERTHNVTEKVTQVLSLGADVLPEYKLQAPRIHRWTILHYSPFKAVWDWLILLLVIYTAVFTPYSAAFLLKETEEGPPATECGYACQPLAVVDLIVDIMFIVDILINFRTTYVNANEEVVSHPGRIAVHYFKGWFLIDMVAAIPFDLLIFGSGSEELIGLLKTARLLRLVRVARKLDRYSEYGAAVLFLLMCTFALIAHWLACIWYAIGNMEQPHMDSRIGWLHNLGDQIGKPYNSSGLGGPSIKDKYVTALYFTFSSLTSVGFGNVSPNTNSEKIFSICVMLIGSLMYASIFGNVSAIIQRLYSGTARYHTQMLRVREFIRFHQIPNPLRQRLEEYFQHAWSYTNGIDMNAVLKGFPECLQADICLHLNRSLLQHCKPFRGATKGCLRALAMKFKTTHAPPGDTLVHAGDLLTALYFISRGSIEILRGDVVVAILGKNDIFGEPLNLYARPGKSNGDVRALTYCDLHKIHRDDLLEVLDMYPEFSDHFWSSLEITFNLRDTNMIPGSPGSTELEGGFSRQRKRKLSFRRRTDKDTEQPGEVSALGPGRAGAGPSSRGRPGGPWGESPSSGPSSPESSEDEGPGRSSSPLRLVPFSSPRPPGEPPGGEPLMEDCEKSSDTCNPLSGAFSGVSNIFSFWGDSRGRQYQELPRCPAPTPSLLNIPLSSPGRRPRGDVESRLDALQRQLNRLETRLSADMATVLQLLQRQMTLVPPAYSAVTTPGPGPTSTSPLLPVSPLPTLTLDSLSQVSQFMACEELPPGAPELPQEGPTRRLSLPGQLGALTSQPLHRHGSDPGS

SMILES	hERG current change (%, negative = inhibition) at 10uM [%]
C[C@]12CCC(=O)C[C@@H]1CC[C@@H]1[C@@H]2CC[C@]2(C)[C@@H](C(=O)COC(=O)CCC(=O)[O-])CC[C@@H]12.[Na+]	28.8
COc1ccc(N=C2C(=O)N3c4c(cccc42)C(C)=CC3(C)C)cc1	9
CCOc1ccc(S(=O)(=O)NCCC(=O)N2CCCN(C)CC2)cc1	8.05
Cc1ccc(NC(=O)CNC(=O)Cc2cccc3ccccc23)nc1	-9.09
N=C1c2c(cc(=O)n3c2[nH]c2ccccc23)CN1CCN1CCOCC1	-0.892
CN1C(=O)CC(N2CCN(C(c3ccccc3)c3ccccc3)CC2)C1=O (centres unmarked)	-3.08
CCC(C(=O)NC1CCCCCC1)c1ccccc1 (centres unmarked)	9.01
COc1ccc(Cl)cc1NC(=O)CN(C)C(=O)c1ccc(-n2nc(C)cc2C)cc1	-35
Cc1ccc(C)n1-c1ccc(N(C)C)cc1	18.3
CN1C(=O)C(C)(C)c2cc(S(=O)(=O)NCCc3ccc(Cl)cc3)ccc21	-25.1
COc1ccc(CC(=O)NCc2nnc(SCC(=O)Nc3ccccc3)n2C)cc1	21.3
CCN(CC1CCCN(CCc2cccc(OC)c2)C1)C(=O)C=C(C)C (centres unmarked)	-61.1
CC1CCCCC1NC(=O)COC(=O)/C=C/c1ccc2c(c1)OCO2 (centres unmarked)	14.1
COc1ccc(CC(=O)NCC2CCCN(Cc3ccc(OC)cc3F)C2)cc1 (centres unmarked)	-36.9
Cc1ccc(/C=C/C(=O)OCC(=O)NC(C)C)o1	13.7
CCOC(=O)c1c(NC(=S)NC(C)=O)sc(C)c1C	12.1
Cc1cccc(NCc2nc(SCC(=O)Nc3ccccc3)n[nH]2)c1	12.9
Cc1ccc(S(=O)(=O)Nc2ccc(NC(=O)Nc3ccc(F)cc3F)cc2)cc1	-6.28
CCN(CC)CCOC(=O)c1ccc(N/C=C(/C#N)c2nc(-c3ccc(OC)c(OC)c3)cs2)cc1	-11.6
CC1Cc2ccccc2N1C(=O)CSc1nnc2n1C(C)(C)Cc1ccccc1-2 (centres unmarked)	-3.06
Oc1cccc(/C=N/Nc2ccc(Cl)nn2)c1O	8.72
Cc1cc(Nc2ccc3ccccc3c2)n2ncnc2n1	-16.9

SMILES	hERG current change (%, negative = inhibition) at 10uM [%]
COc1ccc(CCNC(=O)CNS(=O)(=O)c2ccc(Cl)cc2)cc1	-4.3
Cc1ccc(CN2CCN(/N=C\c3cccc([N+](=O)[O-])c3)CC2)cc1	-19.7
COc1ccc(N(CC(=O)NCCC2=CCCCC2)S(=O)(=O)c2ccc(C)cc2)cc1	13.3
CN(C)c1ccc(/C=C/C(=O)c2ccccc2)cc1[N+](=O)[O-]	-1.57
O=C1c2ccccc2C(=O)N1CCc1csc(-c2ccc(F)cc2)n1	-4.79
COCCN(C(=S)Nc1ccccc1OC)C(C)c1cccs1 (centres unmarked)	-5.11
Cc1cc(/C=C2\Cc3ccccc3C2=O)c(C)n1-c1ccccc1	1.62
COC(=O)c1ccc(C(=O)OC)c(NC(=S)N2CCCCC2C)c1 (centres unmarked)	-11.1
CCOc1ccc(CCNC(=O)CN(C)S(=O)(=O)c2ccc3c(c2)CCC(=O)N3)cc1OCC	-16.7
Cc1cccc(/C=N/n2c(C3CCCCC3)n[nH]c2=S)c1	17.8
CC1Sc2ccc(C(=O)OCc3ccccc3Cl)cc2NC1=O (centres unmarked)	4.64
COc1ccc(CC(=O)N[C@@H](C)C(=O)N2CCC3(CC2)NCCc2[nH]cnc23)cc1	-0.0497
CC(=NCCc1ccccc1)c1c(O)[nH]c(=O)[nH]c1=O	-4.86
COc1ccccc1NC(=O)CS(=O)(=O)c1cn(CC(=O)N(C(C)C)C(C)C)c2ccccc12	-43.2
O=C(N/N=C/c1ccc2c(c1)OCO2)c1ccc(Cl)cc1Cl	20.3
CCc1ccc(NC(=O)CCCn2nc(CC)n3c(cc4occc43)c2=O)cc1	-7.22
CC(C)(C)c1ccc(COC(=O)CNC(=O)CNC(=O)Cc2ccccc2)cc1	-6.93
CCCc1nnc(NC(=O)Cn2c(=O)oc3ccccc32)s1	21
O=S(=O)(c1ccccc1)N1CCCCC1c1cccnc1 (centres unmarked)	2.3
O=C(CSc1ccc([N+](=O)[O-])cn1)Nc1cc(C(F)(F)F)ccc1N1CCOCC1	-34.6
COc1ccc(CN2C(=O)c3cccnc3C2Nc2ccc(OC)c(Cl)c2)cc1 (centres unmarked)	-11.7
CCCc1nc2oc3cc(OC)ccc3c(=O)c2c(=O)n1Cc1ccco1	-40.4

SMILES	hERG current change (%, negative = inhibition) at 10uM [%]
COc1ccc2c(c1)-c1c(ssc1=S)C(C)(C)N2	0.994
CCC(C)NC(=O)C1CCN(S(=O)(=O)c2cccc3cccnc23)CC1 (centres unmarked)	-4.92
O=C(c1ccc(S(=O)(=O)Cc2ccccc2F)c([N+](=O)[O-])c1)N1CCCC1	-1.17
FC(F)Oc1ccccc1C1CC(c2ccc(Br)s2)Nc2ncnn21 (centres unmarked)	2.37
CC(C)c1ccccc1NC(=O)c1ccccc1NC(=O)C1CCCCC1	-2.69
Cc1ccc(-c2nnn(C/C(N)=N/O)n2)cc1	7.71
CCn1cc(/C=N/NC(=O)c2ccc(C#N)cc2F)c2ccccc21	-9.49
CN(C)c1cccc2c1c(NC(=O)Nc1ccccc1)nn2C	7.45
COc1ccc(/C=N\NC(=O)c2cc(O)c(O)c(O)c2)cc1CN1CCN(c2ccc(F)cc2)CC1	14.6
CC(C)(C)NC(=O)c1cccc(NC(=O)Cc2ccc(Br)cc2)c1	-38
CCC1(CC)C(=O)C(C)(C)C(=O)OC1c1ccccn1 (centres unmarked)	-1.39
Cc1c(C#N)c(N=CN(C)C)c(C(=O)c2ccccc2)n1-c1ccccc1	-2.71
CC(C)(C)OC(=O)N1CCC(CC2CC(c3ccccc3)=NO2)(C(=O)NCc2ccccc2)CC1 (centres unmarked)	-18.3
COc1ccccc1N1CCN(CC(O)c2ccccc2)CC1 (centres unmarked)	-8.46
Cc1ccc(C(=O)N=c2sccn2C)cc1C	-5.78
O=C(NNc1nc2ccccc2s1)C1CC1	1.39
COc1cc(COCC(O)CN2CCN(CCN3C(=O)c4cccc5cccc(c45)C3=O)CC2)cc(OC)c1OC.Cl (centres unmarked)	-62
O=C(Cc1ccc(F)cc1)OCn1nnc2ccccc2c1=O	10.8
CSCC(CO)NS(=O)(=O)c1ccc(C)cc1 (centres unmarked)	3.61
Cc1ccc(S(=O)(=O)Nc2cc(C(C(=O)OC(C)C)C(=O)C(F)(F)F)c(O)c3ccccc23)c(C)c1 (centres unmarked)	13.3
Cc1ccccc1NS(=O)(=O)c1ccc(C(=O)N2CC(C)OC(C)C2)cc1 (centres unmarked)	8.78
O=C(COC(=O)c1cccc(S(=O)(=O)N2CCc3ccccc32)c1)Nc1ccc(Cl)cn1	5.99

SMILES	hERG current change (%, negative = inhibition) at 10uM [%]
CCOC(=O)N1CCC(Nc2c(-c3ccccc3)c(=O)c2=O)CC1	-23.2
O=C(NCCc1c[nH]c2ccc(Cl)cc12)c1cccnc1	2.88
Cc1ccc(O)c(C(=O)c2cc(C(=O)NCc3ccccc3)c(=O)n(Cc3ccccc3)c2)c1	-12.1
COc1cccc(CN(C)C(=S)Nc2ccc(C)c(C)c2)c1	2.74
CCOC(=O)N1CCC(NC(=O)c2cccc3c2C(=O)N(Cc2cccnc2)C3)CC1	-13.9
O=C(CSc1ccc(-c2cccnc2)nn1)Nc1ccccc1	-22.9
CC(=O)c1ccc(NC(=O)Nc2ccc(S(=O)(=O)N3CCCC3)cc2)cc1	14
O=C(Nc1ccc2cccnc2c1)c1ccc(Br)cc1	17.4
COc1ccccc1CNC(=O)CCNS(=O)(=O)c1ccc2c(c1)oc(=O)n2C	13.5
Cc1cc(C)cc(N(CC(=O)NCC2CCCO2)C(=O)CN2C(=O)COc3ccccc32)c1 (centres unmarked)	-34.8
Cc1cccc(N2C(=O)NC(=O)/C(=C\C=C\c3ccco3)C2=O)c1	-7
COc1ccccc1Oc1ccc(NC(=O)c2ccccc2C)cc1	19.6
Cc1nn(-c2ccccc2)c(Cl)c1C(=O)NCCCCNC(=O)c1c(C)nn(-c2ccccc2)c1Cl	-2.76
COc1cc(C(=O)NC(C)Cc2cccs2)cc(OC)c1OC (centres unmarked)	-26.7
COc1cc(C2c3sc(=O)[nH]c3SC3C(=O)N(c4ccc(Br)cc4)C(=O)C32)ccc1O (centres unmarked)	-3.19
CCOc1ccc(C(=O)N[C@H](C(=O)O)C(C)C)cc1	7.22
COc1cc(O)oc1C=Nc1ccc(Cl)cc1Cl	-4.38
O=C(O)C1CCN(c2nc(-c3ccccc3)nc3c2oc2ccccc23)CC1	-9.06
COc1ccc(NC(=O)CN(C)CC(=O)Nc2ccc(Cl)cc2[N+](=O)[O-])cc1	-48
Cc1ccc(-c2nc(SCC(=O)N(C)c3c(N)n(Cc4ccccc4)c(=O)[nH]c3=O)n[nH]2)cc1	23.6

— PMC4336329 (PLoS ONE, 2015)
